Assay results reported in article PMC4336329 (PLoS ONE, 2015).
Screen size: about 310,000 compounds; about 14,000 (4.5%) showed an effect of 50% or more. Effects have a minus sign here. The list shows a part of the results.

target: human ether-à-go-go-related gene (hERG) potassium channel (human, UniProt Q12809); assay: primary screen, population patch clamp on CHO cells stably expressing hERG
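Note: peak tail current of the secondary pulse compared with the same well before compound.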

Chain of human ether-à-go-go-related gene (hERG) potassium channel (Q12809 whole entry, looked up): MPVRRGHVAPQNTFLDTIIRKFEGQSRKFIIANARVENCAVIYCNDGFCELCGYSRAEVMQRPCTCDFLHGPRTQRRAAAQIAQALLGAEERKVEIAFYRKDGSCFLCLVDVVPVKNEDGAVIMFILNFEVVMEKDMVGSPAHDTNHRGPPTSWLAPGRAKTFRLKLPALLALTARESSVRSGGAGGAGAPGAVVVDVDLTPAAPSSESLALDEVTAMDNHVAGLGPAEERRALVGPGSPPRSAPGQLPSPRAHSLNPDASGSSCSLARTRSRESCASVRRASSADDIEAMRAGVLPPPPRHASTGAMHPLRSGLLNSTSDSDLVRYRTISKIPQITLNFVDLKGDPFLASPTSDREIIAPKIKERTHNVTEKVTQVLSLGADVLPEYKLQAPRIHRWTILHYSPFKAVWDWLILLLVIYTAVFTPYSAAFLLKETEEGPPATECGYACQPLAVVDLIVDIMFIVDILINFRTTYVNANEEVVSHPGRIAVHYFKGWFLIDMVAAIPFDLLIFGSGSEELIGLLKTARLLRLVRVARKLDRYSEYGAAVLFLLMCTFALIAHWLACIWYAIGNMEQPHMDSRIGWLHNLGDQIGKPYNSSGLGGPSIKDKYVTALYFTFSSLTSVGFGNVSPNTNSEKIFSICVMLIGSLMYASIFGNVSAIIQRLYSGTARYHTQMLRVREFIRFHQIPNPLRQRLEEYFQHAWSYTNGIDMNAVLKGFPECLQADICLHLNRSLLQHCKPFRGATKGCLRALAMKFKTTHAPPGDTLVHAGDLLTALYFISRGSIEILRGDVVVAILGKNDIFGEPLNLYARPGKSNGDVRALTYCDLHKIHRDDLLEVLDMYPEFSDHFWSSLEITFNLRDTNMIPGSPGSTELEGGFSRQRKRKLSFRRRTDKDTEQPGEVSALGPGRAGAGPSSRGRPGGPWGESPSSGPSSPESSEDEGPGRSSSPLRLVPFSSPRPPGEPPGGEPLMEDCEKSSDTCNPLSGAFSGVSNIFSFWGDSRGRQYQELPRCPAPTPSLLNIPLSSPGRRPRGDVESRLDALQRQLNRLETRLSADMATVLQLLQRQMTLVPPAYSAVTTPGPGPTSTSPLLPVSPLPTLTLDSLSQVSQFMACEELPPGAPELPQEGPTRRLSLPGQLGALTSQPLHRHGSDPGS

Row | Compound | hERG current change (%, negative = inhibition) at 10uM
1 | CC1(O)CC(=O)N(c2ccccc2)O1 (stereo not drawn) | -1.7%
2 | CCOc1cc(CNc2ccc(N3CCN(C(C)=O)CC3)cc2)cc(Br)c1OC | -5.28%
3 | Clc1ccc(-c2cn3nc4c(nc3n2)CCCC4)cc1 | -15.3%
4 | CC1CC(C)CN(Cc2nc(N)nc(Nc3ccc4ccccc4c3)n2)C1 (stereo not drawn) | -79%
5 | COC(=O)c1ccc(=O)n(CC(=O)c2ccc(Cl)cc2)c1 | -6.81%
6 | CCC1CC(CSc2ncn[nH]2)OC1=O (stereo not drawn) | 6.84%
7 | CC(=O)Nc1ccc(S(=O)(=O)Nc2ccc(Nc3ccccc3)cc2)cc1 | 17.1%
8 | O=C1CC(N2CCN(c3ccc(F)cc3)CC2)C(=O)N1c1ccc2c(c1)OCO2 (stereo not drawn) | 6.71%
9 | CCOC(=O)Cc1csc(NC(=O)/C=C/c2cccc(Br)c2)n1 | 6.18%
10 | Cn1c(SCc2ccc(Br)cc2)nc2ccccc2c1=O | 12.3%
11 | CCOc1ccccc1NS(=O)(=O)c1cn(C)nc1C | 6.71%
12 | COc1c2c(cc3c1C(CC(O)Cc1ccccc1)N(C)CC3)OCO2 (stereo not drawn) | -61.3%
13 | O=C(Nc1cc([N+](=O)[O-])ccc1F)c1cccs1 | 1.86%
14 | COC(=O)[C@@H]1C[C@@]2(O)[C@@H](O)[C@@H](O)[C@@H](O)C[C@H]2N1CC1CCCCC1 | 20.3%
15 | CCN(CC)S(=O)(=O)c1ccc2nc(CSc3nnnn3-c3ccc(O)cc3)[nH]c2c1 | -53.9%
16 | CN(Cc1ccccc1)C(=O)c1cc(S(=O)(=O)N2CCOCC2)cn1C | -7.13%
17 | CN(C)c1ccc(/C=C(\Cl)c2nc3ccccc3s2)cc1 | -6.87%
18 | COc1ccc(/C=C/C(=O)OCc2cc(=O)n3c(n2)sc2ccccc23)cc1 | -16.8%
19 | O=C(OCC(=O)N1CCCC1)c1cc(Cl)ccc1[N+](=O)[O-] | 5.83%
20 | CCCOc1ccc(C(CC(=O)O)NC(=O)c2sc3ccccc3c2Cl)cc1 (stereo not drawn) | -3.36%
21 | CC(=O)Nc1ccc(S(=O)(=O)N2CCC(n3cnc4cc(F)ccc43)CC2)cc1 | -65.7%
22 | CCNc1oc(-c2ccccc2F)nc1S(=O)(=O)c1ccccc1 | 13.9%
23 | CC(=O)N(C)N(C)c1cc(C)nc(N)n1 | 8.83%

Row | Compound | hERG current change (%, negative = inhibition) at 10uM
24 | COc1ccc(NC(=O)CN2CCN(S(=O)(=O)c3ccc(Cl)cc3)CC2)cc1Cl | -0.308%
25 | Nc1c(Cl)ncnc1NCC(O)CO (stereo not drawn) | 17.7%
26 | CC(C)CC(NC(N)=O)C(=O)NCc1ccccc1Cl (stereo not drawn) | 11.2%
27 | COc1ccc(-c2c(-c3ccccc3OC)sc3ccccc23)cc1C=O | 23.5%
28 | CC(=O)Nc1ccc(NS(=O)(=O)c2ccc(CN3C(=O)c4cccnc4C3=O)cc2)cc1 | 20.9%
29 | CCOC(=O)N1CCN(C(=O)c2cn(C)c(=O)c3c2c2ccccc2n3C)CC1 | -7.75%
30 | NNC(=S)Nc1ccc(C(F)(F)F)cc1Cl | 7.18%
31 | S=C(NCCc1ccccc1)Nc1c(Cl)cccc1Cl | 6.52%
32 | O=c1[nH]cc(COCC(F)CCl)c(=O)[nH]1 (stereo not drawn) | -6.67%
33 | CS(=O)(=O)N(CCc1ccccc1)CC(=O)NCc1ccc(Cl)cc1 | -45.9%
34 | Cc1nnc(SCC(=O)Nc2ccc3[nH]c(=O)[nH]c3c2)s1 | -9.64%
35 | COc1ccccc1-c1nnc(SCC(=O)O)n1-c1ccc(C)cc1 | 0.246%
36 | CCOC(=O)c1cnc(SC)nc1NCCOC | 9.72%
37 | O=C(N/N=C/c1ccco1)c1cc2ccccc2o1 | 2.33%
38 | COc1ccc(S(=O)(=O)N2CCN(C(=O)CCNC(=O)c3ccccc3Cl)CC2)cc1 | -23.3%
39 | CCn1nc(C)c(NC(=O)CC23CC4CC(CC(C4)C2)C3)c1C | 13.7%
40 | CC(=O)Nc1nnc(-c2c(-c3ccccc3Cl)noc2C)o1 | 11.1%
41 | O=C(NNC(=O)c1cc2ccccc2cc1O)NC1CCCCC1 | 22.8%
42 | Cc1c(Cc2ccccc2)sc(NC(=O)c2ccco2)c1C(N)=O | 6.99%
43 | COc1ccccc1NC(=O)CSc1ccc2nnc(-c3ccc(C)cc3)n2n1 | -26.6%
44 | Cc1ccc(OCC(=O)OC(C)C(=O)NC2CCCCC2C)cc1C (stereo not drawn) | -1.91%
45 | O=C(COC(=O)c1cccs1)Nc1cccc(Cl)c1 | 10.2%
